Measurements: paper PMC6451091
The list shows a part of the results. For part of these data: At the low end of the ranking the order means little. For part of these data: Measured with an extract: partners may take part in the binding.

Assays:
Conditions in all cases: 20 mM HEPES pH 7.9, 100 mM NaCl, 1 mM DTT, 0.2 mg/mL BSA, 0.02% Triton X-100, 2% milk, 0.4 mg/mL salmon testes DNA; 1 h; temperature not stated; high values mean tight binding; double strand, one strand shown; sequences stand for … in GCCTAGCAC…GTGCTAGGTCTTGATTCGCTTGACGCTGCTG
PU.1 (IVT) = PU.1 (IVT) (UniProt P17947); experiment: protein-binding microarray (PBM)
[1] = target: PU.1 (endogenous, THP-1 nuclear extract) (UniProt P17947); experiment: nuclear extract protein-binding microarray (nextPBM)
[2] = target: T1, FLI1 (endogenous, THP-1 nuclear extract) (UniProt Q01543); experiment: as above
T1 sequence: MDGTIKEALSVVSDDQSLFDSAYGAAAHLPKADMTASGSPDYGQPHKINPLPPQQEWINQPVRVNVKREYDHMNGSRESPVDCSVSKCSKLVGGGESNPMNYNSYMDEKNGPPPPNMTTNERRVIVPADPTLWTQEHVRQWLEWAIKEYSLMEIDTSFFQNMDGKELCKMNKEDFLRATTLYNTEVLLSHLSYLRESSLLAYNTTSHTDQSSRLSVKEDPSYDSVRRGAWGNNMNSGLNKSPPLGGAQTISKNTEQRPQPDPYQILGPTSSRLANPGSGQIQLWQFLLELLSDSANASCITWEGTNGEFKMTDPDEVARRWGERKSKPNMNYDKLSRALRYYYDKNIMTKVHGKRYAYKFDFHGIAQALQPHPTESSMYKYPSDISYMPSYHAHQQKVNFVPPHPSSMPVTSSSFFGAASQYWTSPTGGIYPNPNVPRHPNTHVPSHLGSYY

| Sequence | binding signal (PU.1 (IVT)) | binding signal [1] | binding signal [2] |
| --- | --- | --- | --- |
| AAAAAGAAGAAGTGAGCCGA | 4.3 z-score | 4.67 z-score | 0.819 z-score |
| AGAATGGGGAAGTGGAAAGG | 6.16 z-score | 6.41 z-score | 2.37 z-score |
| GAAATGAGGAAGTGGCTGGT | 7.9 z-score | 7.19 z-score | 3.71 z-score |
| CTGTTGGGGAAGTGGAGAGG | 2.58 z-score | 2.51 z-score | 1.21 z-score |
| GGAAAGAGGAACTGAATCAG | 6.53 z-score | 6.82 z-score | 2.9 z-score |
| AAAAAGGGGAAGTCTGGACT | 7.65 z-score | 7.12 z-score | 3.26 z-score |
| CAAAAGAGGAAGTCAGAGAG | 7.94 z-score | 7.23 z-score | 4.27 z-score |
| TGAAAGACGAAGTGCAACCA | 0.212 z-score | 0.557 z-score | -0.0203 z-score |
| GATAAGAGGACGTCCTCTGT | -0.187 z-score | -0.261 z-score | 0.158 z-score |
| CGAAAAGGGAAGTGCTAAAC | 6.15 z-score | 6.61 z-score | 2.32 z-score |
| GCAAACAGGAAGTCCCATAG | 4.67 z-score | 5.7 z-score | 4.86 z-score |
| GATGAAGGGAAGTGGAGAAA | 2.6 z-score | 2.43 z-score | 1.57 z-score |
| AATGGCAGGAAGTGAAATCA | 2.15 z-score | 2.31 z-score | 4.21 z-score |
| CAAATGTGGAAGTGATATGC | 4.07 z-score | 4.12 z-score | 1.44 z-score |
| GAAAAGAGGAAGTCAAATTC | 8.31 z-score | 7.1 z-score | 4.2 z-score |
| TGAAAGAGGAACTGCAACCA | 5.7 z-score | 6.29 z-score | 2.28 z-score |
| AAAAAAAGGAAGTGTCAACT | 6.38 z-score | 6.41 z-score | 2.57 z-score |
| AAGAACAGGAAGTGCAAGTT | 5.57 z-score | 6.26 z-score | 4.94 z-score |
| AAAAAGAAGAAGTGGGGCTT | 4.26 z-score | 4.54 z-score | 0.99 z-score |

| Sequence | binding signal (PU.1 (IVT)) | binding signal [1] | binding signal [2] |
| --- | --- | --- | --- |
| CAAATAGGGAAGTGATAGAG | 6.72 z-score | 6.73 z-score | 2.64 z-score |
| GAGAAGGGGAACTGTTGTTT | 3.62 z-score | 2.96 z-score | 1.29 z-score |
| GTCATGAGGAAGTGAATGCT | 5.04 z-score | 5.3 z-score | 2.73 z-score |
| TGCAAGAGGAAGTGCAACCA | 4.86 z-score | 5.63 z-score | 2.92 z-score |
| TGAAAGAGGACGTGCAACCA | 0.427 z-score | 0.497 z-score | 0.528 z-score |
| GAAATGGGGAAGTCACAGAG | 6.31 z-score | 6.42 z-score | 2.05 z-score |
| GAAATCAGGAAGTCCCATAG | 4.8 z-score | 5.66 z-score | 2.62 z-score |
| GCTAAGGGGAAGTGGGGCGG | 4.11 z-score | 4.72 z-score | 2.21 z-score |
| AAAAAGAAGAAGTGGGGATA | 3.94 z-score | 4.22 z-score | 0.979 z-score |
| TAAAAAGGGAAGTGTATATA | 6.46 z-score | 6.67 z-score | 2.58 z-score |
| GGTAAGAGGAAGTCCTTGTC | 5.37 z-score | 6.2 z-score | 2.82 z-score |
| TAGATGAGGAAGTGAGGCTG | 5.41 z-score | 5.95 z-score | 2.4 z-score |
| GAAAAGCGGAAGTGGTGTGG | 8.61 z-score | 7.26 z-score | 5.64 z-score |
| CAGAAGAGGAAGTCAGAGAG | 5.31 z-score | 6.17 z-score | 2.87 z-score |
| GATAAGAAGAAGTCCTCTGT | 1.12 z-score | 1.17 z-score | -0.095 z-score |
| CAAATGAGGAACTGATGCTG | 5.63 z-score | 6.42 z-score | 2.08 z-score |
| TGAAAAGGGAAGTGAGGAAG | 5.34 z-score | 6.23 z-score | 2.69 z-score |
| AAAAAGGGGAAGTGACATAA | 8.47 z-score | 7.44 z-score | 3.71 z-score |
| AAATAGAGGAAGTGAATTGT | 7.77 z-score | 7.18 z-score | 3.87 z-score |

| Sequence | binding signal (PU.1 (IVT)) | binding signal [1] | binding signal [2] |
| --- | --- | --- | --- |
| TGAAAGAGGAACCGCAACAC | 4.1 z-score | 4.41 z-score | 1.51 z-score |
| AAAAAAAGGAAGTGAACAAA | 6.63 z-score | 6.37 z-score | 3.12 z-score |
| AGGCAGAGGAAGTGAGAATG | 3.09 z-score | 2.97 z-score | 2.53 z-score |
| AAAGAGAGGAAGTTCTTGCC | 5.27 z-score | 4.41 z-score | 2.77 z-score |
| GATAAGAGGAAGTCCTCTGC | 6.09 z-score | 6.52 z-score | 2.52 z-score |
| GAGAAGAGGAAGTGCCACAC | 6.45 z-score | 6.72 z-score | 3.23 z-score |
| CGAAAGGGGAAGTGGTAAAC | 7.44 z-score | 7.03 z-score | 3.42 z-score |
| AGATTCAGGAAGTGCCGTGG | 4.59 z-score | 5.48 z-score | 3.62 z-score |
| GGGAAGAGGAAGTGCTCCTG | 6.28 z-score | 6.72 z-score | 3.62 z-score |
| GTGGAGGGGAAGTGGCCTCT | 3.63 z-score | 3.81 z-score | 2.32 z-score |
| CGAAAGGGGAAGTGCTAAAG | 6.86 z-score | 7.13 z-score | 3.3 z-score |
| AAAAACAGGAAGTGTGAATT | 8.16 z-score | 7.37 z-score | 5.19 z-score |
| TAGAAGAGGAAGTGTGCGTG | 5.71 z-score | 6.43 z-score | 3.13 z-score |
| CAAAAAAGGAAGTGCTACCC | 5.46 z-score | 5.91 z-score | 2.78 z-score |
| GCAAAGGGGAAGTGGTTAAA | 6.15 z-score | 6.55 z-score | 2.93 z-score |
| CAAAATGGGAAGTGGATGCT | 5.18 z-score | 5.24 z-score | 2.25 z-score |
| CAAATGATGAACTGATGCGG | -0.173 z-score | -0.308 z-score | 0.282 z-score |
| AAAGAGAGGAAGTCCCAAGA | 3.78 z-score | 3.8 z-score | 2.24 z-score |
| AAAAAGAGGAACTGATGTTT | 7.97 z-score | 7.63 z-score | 3.45 z-score |
